# Results from PubChem BioAssay AID1345082 (National Center for Advancing Translational Sciences (NCATS), 2018).
# Hit rate of the full screen: of about 94,000 compounds, about 4,000 (4.3%) were called active. This list was built around the results that the source calls inconclusive (neither active nor inactive); the mix of calls is not that of the screen. The call rests on the fitted dose curve; in most records, active means well fitted inhibition curve with a large enough effect; inconclusive means small, poorly fitted or top-dose-only effect; inactive means no such curve, though single readings can be large or run the other way. Where the call is inconclusive, the potency comes from a doubtful curve fit.
# Experiment: Cytotoxic Profiling in NIH 3T3 Cell Line of Diverse Libraries Using Quantitative High-Throughput Screening; further: nearly all actives have a fitted effect of over 55% in size
# Conditions: NIH 3T3 viability, CellTiter-Glo ATP luminescence, 48-72 h; activity change, negative = cytotoxicity: at 96.7 µM (top of the series) unless noted; series mostly up to 96.7 µM
# Outline: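 Luminescent ATP readout (CellTiter-Glo, 10 min RT) after 48 or 72 hr compound exposure of NIH 3T3 cells seeded at 400 cells/well in 1536-well format; quantitative HTS.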
# On the % scale 0 is the no-effect control and ±100 the full control effect; potency means the concentration at half of the fitted maximal effect; tags describe the fitted curve by direction and shape.
Compound,Potency,"activity change, negative = cytotoxicity",outcome
Cc1cc(C)cc(C(=O)NCCn2cccc2-c2nc(-c3ccc4c(c3)OCO4)no2)c1,"inconclusive: 20 µM [inhibitor, full curve]",–,–
NCc1ccc(-c2ccc(OC(F)(F)F)cc2)cc1,active: 25.1 µM,–,–
O=C(NCc1cc(F)ccc1F)c1csc(N2CCN(c3ccccc3F)CC2)n1,"inconclusive: 50.1 µM [inhibitor, partial curve, poor fit]",–,–
Cc1oc(C(O)c2cncnc2)nc1C(=O)Nc1ccc(N2CCOCC2)cc1 (stereo not given),"inconclusive: 89.1 µM [inhibitor, partial curve, poor fit]",–,–
Cc1ccc(C2Cn3nnc(C(=O)N4CCC(C(=O)NC5CCCCCCC5)CC4)c3CO2)cc1 (stereo not given),–,inactive: -14.5%,–
Cc1c(C(C)NC(=O)c2ccc(=O)[nH]c2)cnn1-c1cccc2ccccc12 (stereo not given),"inconclusive: 2.82 µM [inhibitor, full curve, poor fit]",–,–
O=C(O)[C@]12CCCN[C@@H]1CCN(Cc1ccccc1OCCn1ccnc1)C2,–,inactive: -11.3%,–
CCN1C(=O)CCN(C(=O)NC(C)C)CC12CCOCC2,–,inactive: 1.89%,–
O=C(c1ccccc1)N1Cc2ccccc2CC2(CCN(CC3CCNC3)C2)C1 (stereo not given),"inconclusive: 70.8 µM [inhibitor, partial curve, poor fit]",–,–
CCCCCC(=O)Nc1nc2c(s1)C[C@@H]1[C@](C)(CO)[C@H](O)CC[C@@]1(C)[C@@H]2CC(=O)N[C@@H](CO)CC(C)C,active: 79.4 µM,–,–
O=C(COc1ccccc1)Nc1ccc2c(c1)CN(CCc1ccc(F)cc1)C(=O)CO2,"inconclusive: 44.7 µM [inhibitor, partial curve, poor fit]",–,–
O=C(CCC1CCN(S(=O)(=O)c2cccc(F)c2)CC1)NC1CC1,"inconclusive: 70.8 µM [inhibitor, single point]",–,–
COCCn1c(=O)c2c(n1Cc1ccccc1)CN(C(=O)c1scnc1C)CC2,"inconclusive: 89.1 µM [inhibitor, partial curve, poor fit]",–,–
Cc1csc(Nc2ccc3ncn(Cc4ccccn4)c(=O)c3n2)n1,"inconclusive: 3.98 µM [inhibitor, full curve, poor fit]",–,–
CCn1ncc(N2CCCC(CC(=O)NC3CCCCC3)C2)cc1=O (stereo not given),–,–,inactive
CC(C)NC(=O)NC[C@H]1O[C@@H](CO)[C@@H](O)[C@H]1N(C)CCc1ccccn1,–,inactive: -2.8%,–
COc1ccc(-c2ccccc2)cc1N1C(=O)[C@@H]2C[C@H]1CN2C(=O)[C@H](N)C(C)C,"inconclusive: 44.7 µM [inhibitor, partial curve, poor fit]",–,–
Cc1nn2c(c1-c1ccnn1C(C)C)N(Cc1ccc(C(=O)O)s1)CCC2,active: 12.6 µM,–,–
O=C(NC1CCN(c2cc(-c3ccccc3)[nH]n2)CC1)c1ccsc1,–,inactive: -5.56%,–
O=C(NCc1ccco1)C1c2ccccc2C(=O)N(C2CCCC2)C12CCCCC2 (stereo not given),"inconclusive: 56.2 µM [inhibitor, partial curve, poor fit]",–,–
O=C1N(Cc2ccccc2)c2ccccc2C12CCN(Cc1ccccc1)C2 (stereo not given),"inconclusive: 44.7 µM [inhibitor, partial curve, poor fit]",–,–
O=C(NC1CC1)[C@@H]1CN(CCCc2ccccc2)C[C@H]1CO,"inconclusive: 44.7 µM [inhibitor, partial curve, poor fit]",–,–

Compound,Potency,"activity change, negative = cytotoxicity",outcome
O=C(C1CCCN(c2nccc(Nc3ccccc3F)n2)C1)N1CCN(c2ncccn2)CC1 (stereo not given),"inconclusive: 44.7 µM [inhibitor, partial curve, poor fit]",–,–
CC(C)n1cnnc1-c1nn(C)c2c1CN(C(=O)c1ccc(F)cc1)CC2,"inconclusive: 70.8 µM [inhibitor, single point]",–,–
Cc1oc(-c2ccccc2)nc1CN1CCCC(C(=O)N2CCC(c3nc(C(=O)N4CCCC4)c(C)o3)CC2)C1 (stereo not given),"inconclusive: 31.6 µM [inhibitor, partial curve]",–,–
COc1ccc(F)cc1-c1ccc(CN2CCCCC2C(=O)NCc2cccnc2)cc1 (stereo not given),"inconclusive: 44.7 µM [inhibitor, partial curve, poor fit]",–,–
CC1Oc2ccc(NC(=O)c3ccccc3)cc2CN(Cc2ccc(Cl)cc2)C1=O (stereo not given),"inconclusive: 44.7 µM [inhibitor, partial curve]",–,–
CC(C)(Oc1nn(CC2CCOCC2)c2ccccc12)C(=O)NC1CCOCC1,"inconclusive: 44.7 µM [inhibitor, full curve]",–,–
Cc1ccccc1C(=O)N(C)Cc1ccc(F)cc1,–,inactive: -14.8% [at 138 µM],–
Cc1ccc(CN2CCCCCCNC(=O)CC2c2ccccc2)s1 (stereo not given),"inconclusive: 44.7 µM [inhibitor, partial curve, poor fit]",–,–
COc1cccc(-c2ccc(C(=O)NCCNC(=O)Nc3ccccc3)cc2)c1,"inconclusive: 50.1 µM [inhibitor, partial curve, poor fit]",–,–
COc1ccccc1-c1onc(C)c1C(=O)NCc1ccc(Cl)cc1,–,inactive: -28.6%,–
COc1cccc(CN2Cc3nc(-c4cc(Cl)ccc4OC)ccc3OCC2=O)c1,"inconclusive: 100 µM [inhibitor, single point]",–,–
Cc1ccc2nc(NC(=O)C3CC(=O)N(c4n[nH]c5ccccc45)C3)sc2c1 (stereo not given),active: 31.6 µM,–,–
COc1ccc(C(=O)N2CCC(C(=O)N3CCC(N4CCOCC4=O)CC3)CC2)cc1,–,inactive: -10.2%,–
COc1ccc(NC(=O)c2ccc3c(c2)OCCN(CCC(F)(F)F)C3)cc1F,"inconclusive: 22.4 µM [inhibitor, full curve, poor fit]",–,–
COc1cccc(C(=O)N2CCC(N(C(=O)C3CC3)C3CCOCC3)CC2)c1,–,inactive: -2%,–
CCC1=C(C(=O)OC)C(c2ccccc2OC)N2C(CC(=O)N3CCCC3)=CSC2=N1 (stereo not given),–,inactive: -14.5%,–
CN(Cc1cccc(N2CCN(C(=O)c3c(Cl)cccc3Cl)CC2)c1)[S+](C)(=O)[O-],"inconclusive: 50.1 µM [inhibitor, partial curve, poor fit]",–,–
Cc1ccccc1C(=O)N1CCC(CCC(=O)NCCc2c[nH]c3ccccc23)CC1,–,inactive: -26%,–
COc1ccc(Nc2ccnc(N3CCN(C(=O)NC(C)C)CC3)n2)cc1,"inconclusive: 31.6 µM [inhibitor, partial curve, poor fit]",–,–
COc1ccc(-n2nc(C3CCCN(Cc4cccs4)C3)[nH]c2=O)cc1 (stereo not given),"inconclusive: 35.5 µM [inhibitor, partial curve]",–,–
Cc1ccc(CNC(=O)N2CCCCCCNC(=O)CC2)cc1,–,inactive: -2.25%,–
Cc1ccc(-c2cccc(CN3CCCC3C(=O)NCC(F)F)c2)cc1Cl (stereo not given),"inconclusive: 44.7 µM [inhibitor, partial curve, poor fit]",–,–

Compound,Potency,"activity change, negative = cytotoxicity",outcome
CCC(C)C(=O)Nc1c(C(=O)OC)n(CC2CCCO2)c2ncc(NC(C)CCO)cc12 (stereo not given),–,inactive: -2.08%,–
CNC(=O)c1cc(-c2ccc(Cl)cc2Cl)nc2c1cnn2C,"inconclusive: 89.1 µM [inhibitor, partial curve]",–,–
O=C1NC(C(=O)NCc2cccc(F)c2)Cn2cccc21 (stereo not given),–,inactive: -6.59%,–
COc1ccc(CNC(=O)C2CCCCN2Cc2ccc(-c3cc(F)ccc3OC)cc2)cc1OC (stereo not given),"inconclusive: 25.1 µM [inhibitor, partial curve, poor fit]",–,–
O=C(Cc1ccccn1)N1CCC2(CC1)CC(c1cccc(C(F)(F)F)c1)=NO2,–,inactive: -29.6%,–
O=C(Nc1ccc(F)cc1)C1CN(S(=O)(=O)c2cccnc2)CC12CCCCC2 (stereo not given),–,inactive: -15.4%,–
Cc1cc(C)n(CCC(=O)N2CC(Oc3cccc(-c4nc(-c5ccccc5)no4)c3)C2)n1,active: 39.8 µM,–,–
Cc1ccc2nc3n(c2c1)[C@@H](CNS(=O)(=O)Cc1ccccc1)COC3,"inconclusive: 44.7 µM [inhibitor, partial curve, poor fit]",–,–
COc1ccc(S(=O)(=O)N2CCc3c(C(=O)N4CCCC4)cccc32)cc1,–,inactive: -24.2%,–
COCCN1CC2(CCOC2)N(C2CCN(C(=O)CCC3CCCC3)CC2)C1=O (stereo not given),"inconclusive: 50.1 µM [inhibitor, partial curve, poor fit]",–,–
CC(=O)N1CCN(C(=O)c2cc(-c3cccc(C(F)(F)F)c3)nc3c2cnn3C)CC1,"inconclusive: 50.1 µM [inhibitor, partial curve, poor fit]",–,–
Cc1noc(-c2cn(C3CCN(C(=O)c4ccc5c(c4)OCO5)C3)nn2)n1 (stereo not given),–,inactive: -8.85%,–
CCN1c2cc(C(=O)NCc3ccc(F)cc3)ccc2C(=O)N2CCCCCC21 (stereo not given),"inconclusive: 50.1 µM [inhibitor, partial curve, poor fit]",–,–
O=C(NCc1cccnc1Oc1cccc(C(F)(F)F)c1)c1cccs1,"inconclusive: 39.8 µM [inhibitor, partial curve, poor fit]",–,–
CCC(C)(C)c1ccc2c(C(=O)N3C[C@H](N)C[C@H]3C(=O)NC)csc2c1,"inconclusive: 50.1 µM [inhibitor, partial curve, poor fit]",–,–
CN(C)C1CCN(c2nc(-c3ccncc3)nc3c2CNC3)C1 (stereo not given),"inconclusive: 89.1 µM [inhibitor, single point]",–,–
CCn1nc(C)c(CCN(C)C(=O)Cn2nc3n(c2=O)CCC(N)CC3)c1C (stereo not given),–,inactive: -7.6%,–
COc1cccc(CC(=O)N2CCCn3nc(C)c(-c4ccnn4C(C)C)c32)c1,"inconclusive: 100 µM [inhibitor, partial curve, poor fit]",–,–
O=C(c1cc2n(n1)CC(c1ccc3c(c1)OCO3)OC2)N1CCCCC1 (stereo not given),active: 39.8 µM,–,–
COc1ccccc1CN1Cc2[nH]cnc2C[C@H]1c1nc(-c2cccc(C)c2)no1,active: 70.8 µM,–,–
O=C1CO[C@H]2CCN(Cc3ccccn3)CC[C@@H]2N1c1ccccc1,"inconclusive: 100 µM [inhibitor, partial curve, poor fit]",–,–
